The RNAGym collection of RNA variant scans (doi:10.1073/pnas.2313332121)
This sample is rich in variants without activity.

B1: TPR 5TU (parent)
chain: GGAUCUUCUCGAUCUAACAAAAAAGACAAAUCUGCCACAAAGCUUGAGAGCAUCUUCGGAUGCAGAGGCGGCAGCCUUCGGUGGCGCGAUAGCGCCAACGUUCUCAACUAUGACACGCAAAACGCGUGCUCCGUUGAAUGGAGUUUAUCAUG

Variants of: B1
Assay: polymerase ribozyme fitness, log enrichment relative to wild type (log ratio); higher = more active; in vitro selection for triplet polymerase activity
How it was run: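 Streptavidin-bead capture of gel-excised extended constructs, followed by RT-PCR, closed a single triplicate in vitro selection round. That round began by annealing PCR-built, transcribed mutant libraries of each subunit of a heterodimeric triplet polymerase ribozyme with a biotinylated primer, the partner subunit and triplets, then incubating them frozen at −7 °C. After Illumina sequencing of inputs and outputs, genotypes needed ≥10 input reads and ≥1 read per output. Fitness is the base-2 logarithm of genotype enrichment over wild-type enrichment, using inverse-variance-weighted replicate averages.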

Variant | polymerase ribozyme fitness (log ratio)
GGAUCUUCUCGAUCUAACAAAAUAGACAAAUCUGCCACAAAGCUUGAGAGCAUCUUCGGAUGCAGAGGCGGCAGCCUUCGGUGGCGCGAUAGCGCGAACGUUCUCAACUAUGACACGCAAAAGGCGUGCUCCGUUGAAUGCAGUUUAUCAUG [A23U C96G C123G G141C] | ≤ -4.2
GGAUCUUCUCGAUCUAACAAAAUAGACAAAUCUGCCACAAACCUUGAGAGCAUUUUCGGAUGCAGAGGCGGCAGCAUUCGGUGGCGCGAUAGAGCCAACGUUCUCAACUAUGACACGCAAAACGCGCGCUCCCUUGAAUGGAGUUUAUCAUG [A23U G42C C54U C76A C93A U127C G133C] | ≤ -4.2
GGAUCUUCUCGAUCUAACAAAAUAGAGAAAUCUGCCACAAAUCUUGAGAGCAUUUUCGGAUGCAGAGGCGGCACCCUUCGGUGGCGCGAUAGCGCAAACGUUCUCAACUAUGACACGCAAAACACGUGCUCCGUUGAAUGGAGUUUAUCAUG [A23U C27G G42U C54U G74C C96A G124A] | ≤ -4.2
GGAUCUUCUCGAUCUAACAAAAUAGACAAAUCUGCCACAAAGCUUGAGAGCAUCUUCGGAUGCAGAGGCGGCAGCCUUCGGUGGCGCGAUAGCGCCAACGUUCUCAACUAUGUCACGCAAAACGCGUGCUCCGUUGAAUGGAGUUUAUCAUG [A23U A113U] | ≤ -4.2
GGAUCUUCUCGAUCUAACAAAAUAGACAAAUCUGCCACAAAGCUUGAGAGCAUCUUCGGAUGCAGAGGCGGCAGCCUUCGGUGGCGCGAUAGCGCCAUCGUUCUCAACUAUGACACGCAAAACGCGUGCUCCGUUGAAUGGAGUUUAUCAUG [A23U A98U] | ≤ -4.2
GGAUCUUCUCGAUCUAACAAAAUAGACAAAUCUGCCACAAAGCUUGAGAGCAUCUUCGGAUGCAGAGGCGGCAGCCUUCGGUGGUGCGAUAGCGCCAACGUUCUCAACUAUGACACGCAAAACGCGUGCUCCGUUGAAUGGAGUUUAUCAGG [A23U C85U U151G] | ≤ -4.2
GGAUCUUCUCGAUCUAACAAAAUAGACAAAUCUGCCACAAAGCUUGAGAGCAUCUUCGGAUGCAGAGGCGGCAGCCUUCGGUGGCGCGAUAGUUCCAACGUUCUCAACUAUGACACGCAAAACGCGUGCUCCGUUGAAUGGAGUUUAUCAUG [A23U C93U G94U] | ≤ -4.2
GGAUCUUCUCGAUCUAACAAAAUAGACAAAUCUGCCACAAAGCUUGAGAGCAUGUUCGGAUGCAGAGGCGGCAGCCUUCGGUGGCGCGAUAGCGUCAACGUUCUCAACUAUGACACGUAAAACGCGUGCUCCGUUGAAUUGAGUUUAUCAUG [A23U C54G C95U C118U G140U] | ≤ -4.2
GGAUCUUCUCGAUCUAACAAAAUAGACAAAUCUGCCACAAAGCUUGAGAGCAUCUUCGGAUGCAGAGGCGGCAGCCUUGGGUGGCGCGAUAGCGCCAACGUUCUCAACUAUGACACGCAAAAAGCGUGCUCCGUUUAAUUGAGUUUAUCAUG [A23U C79G C123A G136U G140U] | ≤ -4.2
GGAUCUUCUCGAUCUAACAAAAUAGACAAAUCUGCCACAAAGCUUGAGAGCAUCUUCGGAUGCAGAGGCGGCAGCCUUCGGUGGAGCGAUAGCGCCAACGUUCUCAACUAUGACACGCAAAACGCGUCCUCCGUUGAAUGGAGUUUAUCCUG [A23U C85A G128C A150C] | ≤ -4.2
GGAUCUUCUCGAUCUAACAAAAUAGACAAAUCUGCCACAAAGCUUGAAAGCAUCUUCGGAUGCAGAGGCGGCAGCCUUCGGUGGCGCGAUAUCGCCAACGGUCUCAACUAUGACACGCGAAACGCGUGCUCCGUUGAAUGGAGUUUAUCAUG [A23U G48A G92U U101G A119G] | ≤ -4.2
GGAUCUUCUCGAUCUAACAAAAUAGACAAAUCUGCCACAAAGCUUGAGAUCAUCUUCGGAUGCAGAGGCGGCAGCCUUCGGUGGCGCGAUAGCGCCAACGUGCUCAACUAUGACACGCAAAACGCGUGCUCCGUUGAAUGGAGUUUAUCAUG [A23U G50U U102G] | ≤ -4.2
GGAUCUUCUCGAUCUAACAAAAUAGACAAAUCUGCCACAAAGCUUGAGAGCUUCUUCGGAUGCAGAGGCGGCAGCCUUCGGUGGCGCGAUAGAGCCAACGUUCUCAACUAUGACACGCAAAUCGCGUGCUCCGUUGAAUGGAGUUUAUCAUG [A23U A52U C93A A122U] | ≤ -4.2
GGAUCUUCUCGAUCUAACAAAAUAGACAAAUCUGCCACAAAGCUUGAGUGCAUCAUCGGAUGCAGCGGCGGCAGCCUUCGAUGGCGCGAUAGCGCCAACGUUCUCAACUAUGACACGCAAAACGCGUGCUCCUUUGAAUGGAGUUUAUCAUG [A23U A49U U55A A66C G81A G133U] | ≤ -4.2
GGAUCUUCUCGAUCUAACAAAAUAGACAAAUCUGCCACAAAGUUUGAGAGCAUCUUCGGAGGCAGAGGCGGCAGCCUUCGGUGUCGCGCUAGCGCCAACGUUCUCAAGUAUGACACGCAAAACGCGUGCUCCGUUGAAUGGAGUAUAUCAUG [A23U C43U U61G G84U A89C C108G U145A] | ≤ -4.2
GGAUCUUCUCGAUCUAACAAAAUAGACAAAUCUGCCACAAAGCUUGAGAGCAUCUUCGGAUGCAGGGUCGGCAGCCUUCGGUGGCGCGAUAGCGCCAACGUUCUCAACUAUGACACGCAAAACGCGUGCUCCGUUGAAUUGAGUUUAUCAUG [A23U A66G G68U G140U] | ≤ -4.2
GGAUCUUCUCGAUCUAACAAAAUAGACAAAUCUGCCACAAAGCUUGAGAGCAUCUUCGGAUGCAGAGGCGGCAGCCUUCGGUGGAGCGAUAGCGCCAACGUUCUCAACUAUGACACGCAAAACGCGUACUCCGUAGUGUGGAGUUGAUCAUG [A23U C85A G128A U135A A137U A138G U146G] | ≤ -4.2
GGAUCUUCUCGAUCUAACAAAAUAGACAAAUCUGUCACAAAGCUUGAGAGCAUCAUCGGAUGCAGUGGCGGCAGCCUUCGGUGGCGCGAUAGCGCCUACGUUCUCAACUAUGUCACGCAAAGCGCGUGCUCCGUUGAAAGGAGUUUAUCAUG [A23U C35U U55A A66U A97U A113U A122G U139A] | ≤ -4.2
GGAUCUUCUCGAUCUAACAAAAUAGACAAAUCUGCCACAAAGCUUGAGAACAUCUUCGGAUGCAGAGGCGGCAGCCUUCGGUGGCGCGAUAGCGCCAACGUUCUCAACUAUGACACGCAAAACGCGUGCUCUGUUGAAUCGAGUUUAUCAUG [A23U G50A C132U G140C] | ≤ -4.2
